From the supplement of paper PMC8728848
The other results are listed elsewhere or left out.

Experiments:
Assay in all cases: glycan array binding signal (z-score within array); higher = stronger binding
Conditions in all cases: glycan notation: IUPAC condensed, linker removed
[1] = target: Fuc(a1-2)Gal(b1-4)GlcNAc(b1-3)Gal(b1-4)GlcNAc(b1-3)Gal(b1-4)GlcNAc
Procedure, shortened: (§1)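 Glycan array data were curated from 3228 arrays in the Consortium for Functional Glycomics database and kept only where the protein sequence was available. Glycan names were converted to IUPAC-condensed notation, and columns mapping to the same glycan were averaged. The binding signal is a within-array Z-score, averaged across arrays of the same protein sequence at different concentrations or buffers and across linkers. Negative Z-scores can be read as non-binding.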

[2] = target: Fuc(a1-2)Gal(b1-4)GlcNAc(b1-3)GalNAc
Procedure, shortened: as §1

[3] = target: Fuc(a1-2)Gal(b1-4)GlcNAc(b1-3)[Fuc(a1-2)Gal(b1-4)GlcNAc(b1-6)]GalNAc
Procedure, shortened: as §1

[4] = target: Fuc(a1-2)Gal(b1-4)GlcNAc(b1-3)[Fuc(a1-3)[Gal(b1-4)]GlcNAc(b1-6)]Gal(b1-4)Glc
Procedure, shortened: as §1

[5] = target: Fuc(a1-2)Gal(b1-4)GlcNAc(b1-6)GalNAc
Procedure, shortened: as §1

[6] = target: Fuc(a1-2)Gal(b1-4)GlcNAc6S
Procedure, shortened: as §1

[7] = target: Fuc(a1-2)Gal(b1-4)[Fuc(a1-3)]GlcNAc
Procedure, shortened: as §1

[8] = target: Fuc(a1-2)Gal(b1-4)[Fuc(a1-3)]GlcNAc(b1-2)Man(a1-3)[Fuc(a1-2)Gal(b1-4)[Fuc(a1-3)]GlcNAc(b1-2)Man(a1-6)]Man(b1-4)GlcNAc(b1-4)[Fuc(a1-6)]GlcNAc
Procedure, shortened: as §1

[9] = target: Fuc(a1-2)Gal(b1-4)[Fuc(a1-3)]GlcNAc(b1-2)[Fuc(a1-2)Gal(b1-4)[Fuc(a1-3)]GlcNAc(b1-4)]Man(a1-3)[Fuc(a1-2)Gal(b1-4)[Fuc(a1-3)]GlcNAc(b1-2)Man(a1-6)]Man(b1-4)GlcNAc(b1-4)GlcNAc
Procedure, shortened: as §1

[10] = target: Fuc(a1-2)Gal(b1-4)[Fuc(a1-3)]GlcNAc(b1-3)Gal(b1-4)[Fuc(a1-3)]GlcNAc
Procedure, shortened: as §1

[11] = target: Fuc(a1-2)Gal(b1-4)[Fuc(a1-3)]GlcNAc(b1-3)Gal(b1-4)[Fuc(a1-3)]GlcNAc(b1-3)Gal(b1-4)[Fuc(a1-3)]GlcNAc
Procedure, shortened: as §1

[12] = target: Fuc(a1-2)Gal(b1-4)[Fuc(a1-3)]GlcNAc(b1-3)GalNAc
Procedure, shortened: as §1

[13] = target: Fuc(a1-2)Gal(b1-4)[Fuc(a1-3)]GlcNAc(b1-3)[Neu5Ac(a2-6)Gal(b1-4)GlcNAc(b1-6)]Gal(b1-4)Glc
Procedure, shortened: as §1

[14] = target: Fuc(a1-2)Gal3S(b1-4)GlcNAc
Procedure, shortened: as §1

[15] = target: Fuc(a1-2)Gal6S(b1-3)GlcNAc
Procedure, shortened: as §1

[16] = target: Fuc(a1-2)Gal6S(b1-3)GlcNAc6S
Procedure, shortened: as §1

Fuc(a1-2)Gal6S(b1-4)Glc = target: Fuc(a1-2)Gal6S(b1-4)Glc
Procedure, shortened: as §1

[17] = target: Fuc(a1-2)Gal6S(b1-4)Glc6S
Procedure, shortened: as §1

Fuc(a1-2)[Gal(a1-3)]Gal = target: Fuc(a1-2)[Gal(a1-3)]Gal
Procedure, shortened: as §1

[18] = target: Fuc(a1-2)[Gal(a1-3)]Gal(b1-3)GalNAc
Procedure, shortened: as §1

[19] = target: Fuc(a1-2)[Gal(a1-3)]Gal(b1-3)GalNAc(b1-3)Gal(a1-4)Gal(b1-4)Glc
Procedure, shortened: as §1

[20] = target: Fuc(a1-2)[Gal(a1-3)]Gal(b1-3)GlcNAc
Procedure, shortened: as §1

[21] = target: Fuc(a1-2)[Gal(a1-3)]Gal(b1-3)GlcNAc(b1-2)Man(a1-3)[Fuc(a1-2)[Gal(a1-3)]Gal(b1-3)GlcNAc(b1-2)Man(a1-6)]Man(b1-4)GlcNAc(b1-4)GlcNAc
Procedure, shortened: as §1

[22] = target: Fuc(a1-2)[Gal(a1-3)]Gal(b1-3)GlcNAc(b1-2)Man(a1-3)[Fuc(a1-2)[Gal(a1-3)]Gal(b1-3)GlcNAc(b1-2)Man(a1-6)]Man(b1-4)GlcNAc(b1-4)[Fuc(a1-6)]GlcNAc
Procedure, shortened: as §1

[23] = target: Fuc(a1-2)[Gal(a1-3)]Gal(b1-3)GlcNAc(b1-3)GalNAc
Procedure, shortened: as §1

[24] = target: Fuc(a1-2)[Gal(a1-3)]Gal(b1-3)GlcNAc(b1-6)GalNAc
Procedure, shortened: as §1

[25] = target: Fuc(a1-2)[Gal(a1-3)]Gal(b1-4)Glc
Procedure, shortened: as §1

[26] = target: Fuc(a1-2)[Gal(a1-3)]Gal(b1-4)GlcNAc
Procedure, shortened: as §1

[27] = target: Fuc(a1-2)[Gal(a1-3)]Gal(b1-4)GlcNAc(b1-2)Man
Procedure, shortened: as §1

[28] = target: Fuc(a1-2)[Gal(a1-3)]Gal(b1-4)GlcNAc(b1-2)Man(a1-3)[Fuc(a1-2)[Gal(a1-3)]Gal(b1-4)GlcNAc(b1-2)Man(a1-6)]Man(b1-4)GlcNAc(b1-4)GlcNAc
Procedure, shortened: as §1

B1: CaSRK1 (Capsicum annuum) (protein)
chain: MALCKIFPFAFILLSCSCYLISGQRFDYPTANLSTTWINSVSAPHSIDYTDGSRIRAILLRGTFGPRYACGFYCNGNCESYLFAIFIVQTNSASQITSPAIGFPQVVWSANRNNPVKINSTLQLTAEGDLVLRDADGTLAWSTNTAGKSVAGLSLTDEGNLALFDSKNATVWQSFDHPTDALVPGQKLVPGMKLTASVSRTNWTAGGLFALSAIDNGLVAFVESNPPQKYFEASVGGSNTSGGSNYVKYLNGSLTLFTHSADTTELILISITPASSAQYMKLESNGHLKVYEWTSRGWREVDDLLTGFRGECNYPTVCGRYGICTMGQCSCPTSSSSRTYFRPIDVRRPSLGCSEVTKLTCQNTKKHSPLEVEDVDYFAFKAGISDTDLNTCKRACLEKCSCKAAFFRSGLNSSRTRGDCYLPTEIFSIMNNEKDRTRYDSVAFIKVQV
[1]
  glycan array binding signal (z-score): -0.431
[2]
  glycan array binding signal (z-score): -0.313
[3]
  glycan array binding signal (z-score): -0.065
[4]
  glycan array binding signal (z-score): -0.599
[5]
  glycan array binding signal (z-score): -0.17
[6]
  glycan array binding signal (z-score): -0.34
[7]
  glycan array binding signal (z-score): -0.501
[8]
  glycan array binding signal (z-score): -0.395
[9]
  glycan array binding signal (z-score): 0.156
[10]
  glycan array binding signal (z-score): -0.51
[11]
  glycan array binding signal (z-score): -0.508
[12]
  glycan array binding signal (z-score): -0.35
[13]
  glycan array binding signal (z-score): -0.374
[14]
  glycan array binding signal (z-score): -0.245
[15]
  glycan array binding signal (z-score): -0.016
[16]
  glycan array binding signal (z-score): 2.31
Fuc(a1-2)Gal6S(b1-4)Glc
  glycan array binding signal (z-score): -0.33
[17]
  glycan array binding signal (z-score): 0.695
Fuc(a1-2)[Gal(a1-3)]Gal
  glycan array binding signal (z-score): -0.38
[18]
  glycan array binding signal (z-score): -0.441
[19]
  glycan array binding signal (z-score): 0.004
[20]
  glycan array binding signal (z-score): 2.37
[21]
  glycan array binding signal (z-score): -0.546
[22]
  glycan array binding signal (z-score): 2.11
[23]
  glycan array binding signal (z-score): -0.199
[24]
  glycan array binding signal (z-score): -0.111
[25]
  glycan array binding signal (z-score): -0.09
[26]
  glycan array binding signal (z-score): -0.284
[27]
  glycan array binding signal (z-score): -0.359
[28]
  glycan array binding signal (z-score): -0.56
